Usually % Inhibition stands for the relative decrease from the control value, in per cent.

The structures appear in SMILES notation. About 540 (0.36%) of roughly 150,000 compounds showed an effect of 50% or more. The list shows a part of the results.

The subject of the experiment is Plasmodium falciparum. Kind of experiment: Primary screen in NF54 nanoGlo assay, in single point, at 2uM, 72h; a lower Z score goes with more inhibition. It is filed as functional, Erythrocyte. The following applies: timepoint 72 hour.
With `COc1cccc([C@H](CN2CCN(S(=O)(=O)c3c(C)nn(C)c3Cl)CC2)OCc2cccc(Cl)c2)c1`, the “% Inhibition” value is recorded as 15% and the Z score is reported as -2.02.

`O=C1CC(c2ccccc2)=NN1c1c(Cl)cc(Cl)cc1Cl`: the “% Inhibition” value is recorded as -21% and the Z score was 2.87.

For `Cn1cc(Br)c(Cn2cnc3c(c2=O)CCC3)n1`, the “% Inhibition” value was 1% and the Z score is given as -0.15.

For the molecule `CC[C@H]1CCCCN1CC(=O)N(C)Cc1[nH]c2ccccc2c1C`, the “% Inhibition” value was -2% and the Z score is reported as 0.34.

Take `O=C(c1nccn1Cc1ccccc1)N1CCCCCC1`: the “% Inhibition” value is -18% and the Z score is recorded as 3.07.

Take `CC1CCN(C(=O)CNc2ccc(C3CC3)c(F)c2)CC1`: the “% Inhibition” value is reported as -7% and the Z score stood at 0.72.

Take `C[C@H]1CCCCN1CCCNC(=O)c1csc(NC(=O)c2ccccc2F)n1`: the “% Inhibition” value is -3% and the Z score is 0.41.

Turning to `COc1cc(OC)cc(C(=O)N2CCN(Cc3cc(C)no3)CC2)c1`, the “% Inhibition” value is reported as -5% and the Z score was 0.78.

For the molecule `O=C(CCc1nc(-c2ccc3cc[nH]c3c2)no1)N1CCOCC1`, the “% Inhibition” value is on record as -17% and the Z score is recorded as 2.1.

With `COCCN(CC(=O)N(Cc1ccc(C)cc1)C1CCN(S(C)(=O)=O)CC1)S(=O)(=O)c1ccccc1`, the “% Inhibition” value is recorded as -16% and the Z score turned out to be 2.18.

Turning to `O=C(CN1CCC(c2ccccn2)CC1)N1CCCCC1`, the “% Inhibition” value is -8% and the Z score is 1.19.

Turning to `COC(=O)c1ccc(Cn2cnc3c2c(=O)n(CC2CC2)c(=O)n3-c2ccccc2)cc1`, the “% Inhibition” value came out at 1% and the Z score is reported as -0.16.

For the molecule `N#Cc1ncn(CCc2cc(Cl)c3c(c2)OCCCO3)c1C#N`, the “% Inhibition” value is -7% and the Z score is 0.71.

Turning to `CCN(CC(F)(F)F)C(=O)Nc1cccc(N2CCCC2)c1C`, the “% Inhibition” value is -8% and the Z score was found to be 0.94.

On to `CCc1nc(C#N)cc(N2CCC[C@@H]2CS(C)(=O)=O)n1`, for which the “% Inhibition” value is listed as -2% and the Z score is reported as 0.21.

Turning to `NC(=O)c1ccc(S(=O)(=O)c2ccc(C(N)=O)s2)s1`, the “% Inhibition” value is reported as -5% and the Z score was 0.67.

In the case of `CC(C)(C)c1cnc(NC(=O)Nc2c[nH]nn2)s1`, the “% Inhibition” value was found to be 0% and the Z score was -0.02.

With `CNc1nnc(CC(=O)N2Cc3ccccc3OC3(CCC3)C2)s1`, the “% Inhibition” value is recorded as -10% and the Z score was 1.49.

For `CC[C@@H](CO)NC(=O)Cc1ccc(NCc2ccc(C)o2)cc1`, the “% Inhibition” value is recorded as -2% and the Z score amounted to 0.3.

In the case of `Cn1nc(C(F)F)cc1C(=O)NCC[C@H]1CCCOC1`, the “% Inhibition” value is on record as -5% and the Z score is 0.88.

For `N/C(CCN1C(=O)c2ccccc2C1=O)=N\OC(=O)C1CCCN2CCCCC12` (stereo unspecified), the “% Inhibition” value is recorded as -16% and the Z score came to 2.68.

As for `O=C1CC[C@@H](CN(Cc2ccccn2)C(=O)c2cc3c(s2)CCCC3)N1`, the “% Inhibition” value turned out to be 4% and the Z score is -0.77.

Regarding `CC(C(=O)N1CCNC(=O)CC1c1ccccc1)n1cccn1` (stereo unspecified), the “% Inhibition” value is given as -17% and the Z score amounted to 2.49.

(Values after ChEMBL document CHEMBL4888484, “Replenishing the malaria drug discovery pipeline: Screening and hit evaluation of the MMV Hit Generation Library 1 (HGL1) against asexual blood stage Plasmodium falciparum ,using a nano luciferase reporter read-out” (2022).)
